Results on 83 molecules are retold here after ChEMBL document CHEMBL4888484, “Replenishing the malaria drug discovery pipeline: Screening and hit evaluation of the MMV Hit Generation Library 1 (HGL1) against asexual blood stage Plasmodium falciparum ,using a nano luciferase reporter read-out” (2022).

Each structure is given as a SMILES string. The campaign covered roughly 150,000 compounds. About 540 (0.36%) showed an effect of 50% or more. The list shows a part of the results.

For this test, the system named is Plasmodium falciparum. The experiment in a line: Primary screen in NF54 nanoGlo assay, in single point, at 2uM, 72h; a lower Z score goes with more inhibition. Conditions: timepoint 72 hour. Format: functional, Erythrocyte.
Broadly, the % Inhibition is the change of the read-out against control, counted positive when it falls. On to `CC(C)(C)NC(=O)CNC(=O)c1cccc(F)c1`, for which the “% Inhibition” value is given as 37% and the Z score was -5.05.
For `O=C(C1=CCCCO1)N1CCOC2CCCCC21` (stereo unspecified) the same measures were 30% and -3.42.
For `Cc1oc(-c2ccccc2)nc1CN1CCOc2cc(N(C)C)ccc21` the same measures were -6% and 0.51.
Regarding `CC1(C)C[C@H](O)c2cccc(NS(=O)(=O)c3cccs3)c2O1`, the “% Inhibition” value amounted to 1% and the Z score is on record as -0.17.
For `CCC[C@@H](CCc1ccccc1)NC(=O)c1conc1C(C)(C)N`, the “% Inhibition” value is reported as -9% and the Z score is listed as 1.61.
For `CC1CN(C(=O)CNC(=O)c2cccs2)C(c2ccccc2)CO1` (stereo unspecified) the same measures were 4% and -0.83.
Consider `CN(CC1(CO)CC1)c1nccc(N2CCN[C@@H]3CS(=O)(=O)C[C@@H]32)n1`, for which the “% Inhibition” value is 1% and the Z score is recorded as -0.16.
Turning to `CC[C@H](C)NC(=O)c1nc(S(C)(=O)=O)ncc1Cl`, the “% Inhibition” value is recorded as -4% and the Z score was 0.68.
Take `Cc1c(Cl)cncc1NC(=O)N1CCC(OC2CCC2)CC1`: the “% Inhibition” value is on record as -5% and the Z score worked out at 0.61.
Taken in the same sequence, the figures for `Cc1nnc(-c2cccc(NC(=O)C3CCN(C(=O)C4=CCCCC4)CC3)c2)s1` were -8% and 0.72.
For `CCN(CC1CCOCC1)C(=O)C1=C(C)NC(=O)N[C@H]1C` the same measures were 2% and -0.35.
For `O=C(NC(c1ccccc1)c1ccccc1)c1ccc(Oc2nccs2)cc1` the same measures were -3% and 0.6.
On to `Cc1cc(C(=O)n2nc(N)cc2C2CCOCC2)c(C)n1C(C)C`, for which the “% Inhibition” value is given as 5% and the Z score is listed as -0.87.
For `CCc1nc2ccc(C(=O)N3CCC4(CC3)OC(=O)c3ccccc34)cc2s1` the same measures were -5% and 0.99.
For `Cc1cnc(C(=O)N[C@H]2CCC23CCOCC3)cn1` the same measures were 20% and -2.59.
For `CC(C)NS(=O)(=O)c1ccc2c(c1)nc(-c1cnc(C(C)C)nc1)n2C(C)C`, the “% Inhibition” value turned out to be 0% and the Z score is listed as 0.02.
Regarding `Cc1cc(C)n(CCC(=O)N2CC[C@@H]3OCc4cccc(c4)Oc4cccc(c4)CCC(=O)N(C)CC(=O)N[C@@H]3C2)n1`, the “% Inhibition” value is reported as -2% and the Z score was found to be 0.3.
Consider `Cc1ccc(OC2(C(=O)O)CCN(c3nccs3)CC2)cc1`, for which the “% Inhibition” value is -11% and the Z score turned out to be 2.08.
For `CCC1(C(=O)Nc2ccc3cc(Cl)cnc3n2)CCOCC1` the same measures were -17% and 1.96.
For the molecule `Cn1cnc(-c2ccccc2)c1NC(=O)c1ccnn1C1CCC1`, the “% Inhibition” value is -9% and the Z score came out at 0.96.
Taken in the same sequence, the figures for `Brc1ccc([C@@H]2COCCN2)cc1` were 11% and -1.61.
As for `Cc1nc[nH]c1CN(Cc1c(C)nn(C)c1C)C(C)C`, the “% Inhibition” value was -7% and the Z score is listed as 0.99.
For `O=C(NCCc1ccccc1)C1Cc2cc(C(F)(F)F)ccc2N2CCN(Cc3ccc(F)cc3)CC12` (stereo unspecified) the same measures were 1% and -0.21.
In the case of `CCCNC(=O)CCCN1CCN(C(=O)c2cscn2)[C@@H](C)C1`, the “% Inhibition” value is listed as 5% and the Z score is given as -0.86.
As for `CCCN(c1ncnc(CC)c1F)C1CC1`, the “% Inhibition” value is recorded as -14% and the Z score came to 1.28.
Taken in the same sequence, the figures for `COc1ccc(CC(C(=O)OC2CC(C)N(C)C(C)C2)c2ccccc2)cc1` (stereo unspecified) were -2% and 0.35.
For `Cc1ccc(CN[C@H]2CCOC3(CC(C(=O)O)C3)C2)c(C)c1` (stereo partly specified) the same measures were 1% and -0.21.
For `COc1ccccc1CC(=O)Nc1cc(N2CCCC2=O)ccc1Cl` the same measures were -12% and 1.51.
`OC[C@@H]1COCCN(Cc2ccc3ccn(Cc4ccccc4)c3c2)C1`: the “% Inhibition” value is listed as -7% and the Z score was determined as 1.06.
Taken in the same sequence, the figures for `O=S(=O)(c1ccc(Cl)cc1)N1CCC2(CC1)NCCN=C2NCc1ccc2c(c1)OCO2` were -17% and 2.19.
Taken in the same sequence, the figures for `COCCN1C(C)CN(C(=O)CN(C)C2CC2)CC1C` (stereo unspecified) were -6% and 0.81.
For `COc1ccc(CC2(C(=O)O)CCN(Cc3cccnc3)CC2)cc1` the same measures were 13% and -1.82.
As to `CCn1cc2c(n1)c(=O)n(Cc1ccc(C)cc1)c(=O)n2CC(=O)Nc1ccc(C)c(C)c1`, the “% Inhibition” value is reported as -2% and the Z score is 0.24.
Take `CC1(C)CC(=O)C2(Cc3ccc(Cl)cc3N3CCC(c4ccccc4)CC32)C(=O)C1` (stereo unspecified): the “% Inhibition” value came to 1% and the Z score was -0.14.
Regarding `Cc1ccc(-c2nc(CN3CCCC3)n(CCO)n2)o1`, the “% Inhibition” value was -14% and the Z score was determined as 1.55.
Taken in the same sequence, the figures for `COCC(=O)N1CCc2cc3ccc2[C@@H]1c1cccc(c1)OCCCNC(=O)c1cc(ccc1O)O3` were -2% and 0.47.
For `Cc1ccc(NC2CCN(CCN3CCOCC3)CC2)cc1C` the same measures were -9% and 0.78.
For `CC(C)c1noc(OCc2ccnc(N(C)C)c2)n1` the same measures were 0% and -0.01.
On to `O=C(CN1CCCCC1)Nc1nnc(C2CC2)s1`, for which the “% Inhibition” value is -12% and the Z score is listed as 2.01.
With `CCN1CCN(S(=O)(=O)c2cc3c(cc2Cl)N(Cc2noc(C)n2)C(=O)CO3)CC1`, the “% Inhibition” value was 2% and the Z score is -0.23.
For `Cc1c(CN(C)Cc2nccn2C2CC2)[nH]c2ccccc12` the same measures were -10% and 1.97.
Taken in the same sequence, the figures for `CN(Cc1ccccc1)c1nc(-c2ccccc2)ncc1C(=O)NC1CC1` were -6% and 0.85.
For `Cc1nc[nH]c1CN1C[C@H]2CC[C@@H](C1)N(Cc1ccc3nsnc3c1)C2` the same measures were -7% and 1.39.
Regarding `CCc1nc(N2CCCN(C(=O)c3ccc(C)cc3)CC2)c2c(C)nn(-c3ccccc3C)c2n1`, the “% Inhibition” value came out at 10% and the Z score was -1.22.
Taken in the same sequence, the figures for `O=C(CCc1ccccc1Cl)N[C@H]1CC12CCOCC2` were -5% and 0.73.
As to `Cn1cc([C@@H]2CCCN2Cc2nnnn2C2CC2)cn1`, the “% Inhibition” value is on record as 8% and the Z score is -1.1.
Regarding `CN1CCN(C(=O)[C@@H]2CCN(c3ccccc3)C2=O)CC1=O`, the “% Inhibition” value is -7% and the Z score was determined as 1.33.
Taken in the same sequence, the figures for `CCc1cc(CNc2nncc(-c3ccc(C4CCCCC4)cc3)n2)on1` were 3% and -0.37.
As for `CCOc1cc(CN(C)Cc2[nH]nc3c2CCC3)cc(Cl)c1OCC`, the “% Inhibition” value was -1% and the Z score came out at 0.26.
Take `CCC(C)C(C)NC(=O)CCc1nc2c([nH]1)c(=O)[nH]c(=O)n2C` (stereo unspecified): the “% Inhibition” value is -11% and the Z score is 1.22.
Turning to `CCOC(=O)N1CCN(C(=O)[C@H](C)NC(=O)c2cc3ccccc3o2)CC1`, the “% Inhibition” value is on record as -5% and the Z score was determined as 0.58.
With `CC(C)N1CCN(C(=O)c2cccc3cnccc23)CC1`, the “% Inhibition” value is -6% and the Z score was 0.9.
As to `O=C(CN1CN(c2ccccc2)C2(CCN(C(=O)c3cccc4ccccc34)CC2)C1=O)NCc1ccco1`, the “% Inhibition” value is on record as -16% and the Z score is on record as 2.56.
On to `Cc1nnc([C@H](C)N2CCc3c(Br)ccc(F)c3C2)o1`, for which the “% Inhibition” value was found to be 1% and the Z score was -0.14.
`C#CCN(CC=C)C(=O)c1ccc([C@H](C)N2CCCCC2)o1`: the “% Inhibition” value is on record as -10% and the Z score worked out at 1.92.
Taken in the same sequence, the figures for `COc1ccc(NC(=O)[C@H](C)n2nc3c(cc2=O)CCC3)c(C)c1` were 7% and -0.89.
For `COc1cc(C(=O)NC[C@@H](c2ccc3c(c2)OCO3)N2CCN(C)CC2)cc(OC)c1OC` the same measures were -12% and 2.21.
For `Cc1cc(NC(=O)N[C@@]2(C)CCOC2)n(Cc2ccccn2)n1` the same measures were -15% and 1.3.
In the case of `CC(C)c1nc(C2CCN(C(=O)[C@@H]3COCCN3CC(F)F)CC2)no1`, the “% Inhibition” value is listed as 4% and the Z score is recorded as -0.75.
Taken in the same sequence, the figures for `CCn1ccnc1CNC(=O)NCC1CCc2ccccc2CC1` were -7% and 1.12.
On to `CCN1CCN(C(=O)Nc2ccc(C3CCC3)cn2)CC1=O`, for which the “% Inhibition” value is 5% and the Z score was -0.63.
Taken in the same sequence, the figures for `CCC[C@H](C)c1cn(CCc2cc(O)nc(C)n2)nn1` were -12% and 1.92.
Taken in the same sequence, the figures for `Cn1cc(C(=O)O)c(C(=O)Nc2ccc(Nc3ccccc3)cc2)n1` were -1% and 0.1.
As for `Cc1ccoc1C(=O)N(C)Cc1nnc[nH]1`, the “% Inhibition” value was -1% and the Z score is recorded as 0.11.
Consider `O=C(COc1ccc(Cl)cc1)Nc1nnc(-c2ccc3c(c2)OCO3)o1`, for which the “% Inhibition” value is given as -14% and the Z score is reported as 2.58.
For `Cc1ccccc1[C@H]1C[C@H](NC(=O)Nc2nnn(C(C)C)n2)C1` the same measures were 4% and -0.7.
Taken in the same sequence, the figures for `CCN(CC)CCn1c2ccccc2n2cc(-c3ccc(OC)c(OC)c3)nc12` were 0% and -0.04.
For `O=C(c1ccc2c(=O)n3c(nc2c1)CCCCCC3)N1CCC[C@H]1c1ccc2c(c1)OCCO2` the same measures were -8% and 1.52.
Turning to `COC1C(C)C(NC(C)c2ccc(OCCN(C)C)cc2)C1(C)C` (stereo unspecified), the “% Inhibition” value is listed as -9% and the Z score was 1.26.
Regarding `COCc1ccccc1Nc1ccccc1-c1noc(-c2ncccc2F)n1`, the “% Inhibition” value is given as -12% and the Z score is 1.29.
As to `CCCCOCC(=O)N1C[C@@H]2CC[C@H]1CN(Cc1c(C)noc1C)C2`, the “% Inhibition” value was -4% and the Z score is 0.48.
For `O=C(Nc1snnc1-c1ccccc1)N1CCS(=O)(=O)CC1`, the “% Inhibition” value was -2% and the Z score is recorded as 0.45.
Taken in the same sequence, the figures for `N[C@H]1CN(C(=O)Cc2ccc3cccnc3c2)CC12CCC2` were -11% and 2.1.
Taken in the same sequence, the figures for `CCc1ccc(C(=O)NCCCC2CCCC2O)cc1S(=O)(=O)N1CCOCC1` (stereo unspecified) were 47% and -7.15.
In the case of `O=C1C2C(c3ccccc3)C=CC(c3ccccc3)C2C(=O)N1C1CCCCC1` (stereo unspecified), the “% Inhibition” value is -2% and the Z score stood at 0.3.
For `CCCn1nc(C(=O)O)c2c1CC[C@H](N1CCC(OC)CC1)C2` the same measures were -9% and 1.05.
Regarding `C=C(C)[C@H]1OCC[C@H]1C(=O)N1CC[S+]([O-])CC(C)C1` (stereo partly specified), the “% Inhibition” value is recorded as -7% and the Z score is listed as 0.7.
For `Cc1cnn(CCNCC(=O)N2CCC[C@H]2c2ccsc2)c1` the same measures were 7% and -0.85.
For `Cc1cc(N2CCN(c3nc(C)cc(C#N)n3)CC2)nc(C(C)C)n1` the same measures were 6% and -0.85.
Regarding `Cn1cc2c(n1)c(=O)n(Cc1ccc(F)cc1)c1nn(Cc3ccc(Cl)cc3)c(=O)n21`, the “% Inhibition” value is given as -11% and the Z score was found to be 1.45.
For `CCCNC(=O)N(CCN1CCOCC1)CC(=O)N1N=C(c2ccc(F)cc2)C[C@H]1c1ccccc1F` the same measures were -10% and 0.98.
Taken in the same sequence, the figures for `Cc1ccc(C2CCCCCN2C(=O)NC2CC(=O)N(C3CC3)C2)o1` (stereo unspecified) were -4% and 0.52.
For the molecule `Cc1ccc(NC(=O)N[C@@H](C)CC#N)s1`, the “% Inhibition” value is reported as -16% and the Z score was found to be 1.82.
